Source: article PMC4336329 (PLoS ONE, 2015)
About 14,000 (4.5%) of roughly 310,000 compounds showed an effect of 50% or more. Effects have a minus sign here. The list shows a part of the results.
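Note: peak tail current of the secondary pulse compared with the same well before compound.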

The compounds below were run against human ether-à-go-go-related gene (hERG) potassium channel (human, UniProt Q12809) (assay: primary screen, population patch clamp on CHO cells stably expressing hERG).
human ether-à-go-go-related gene (hERG) potassium channel, sequence (Q12809 whole entry, looked up): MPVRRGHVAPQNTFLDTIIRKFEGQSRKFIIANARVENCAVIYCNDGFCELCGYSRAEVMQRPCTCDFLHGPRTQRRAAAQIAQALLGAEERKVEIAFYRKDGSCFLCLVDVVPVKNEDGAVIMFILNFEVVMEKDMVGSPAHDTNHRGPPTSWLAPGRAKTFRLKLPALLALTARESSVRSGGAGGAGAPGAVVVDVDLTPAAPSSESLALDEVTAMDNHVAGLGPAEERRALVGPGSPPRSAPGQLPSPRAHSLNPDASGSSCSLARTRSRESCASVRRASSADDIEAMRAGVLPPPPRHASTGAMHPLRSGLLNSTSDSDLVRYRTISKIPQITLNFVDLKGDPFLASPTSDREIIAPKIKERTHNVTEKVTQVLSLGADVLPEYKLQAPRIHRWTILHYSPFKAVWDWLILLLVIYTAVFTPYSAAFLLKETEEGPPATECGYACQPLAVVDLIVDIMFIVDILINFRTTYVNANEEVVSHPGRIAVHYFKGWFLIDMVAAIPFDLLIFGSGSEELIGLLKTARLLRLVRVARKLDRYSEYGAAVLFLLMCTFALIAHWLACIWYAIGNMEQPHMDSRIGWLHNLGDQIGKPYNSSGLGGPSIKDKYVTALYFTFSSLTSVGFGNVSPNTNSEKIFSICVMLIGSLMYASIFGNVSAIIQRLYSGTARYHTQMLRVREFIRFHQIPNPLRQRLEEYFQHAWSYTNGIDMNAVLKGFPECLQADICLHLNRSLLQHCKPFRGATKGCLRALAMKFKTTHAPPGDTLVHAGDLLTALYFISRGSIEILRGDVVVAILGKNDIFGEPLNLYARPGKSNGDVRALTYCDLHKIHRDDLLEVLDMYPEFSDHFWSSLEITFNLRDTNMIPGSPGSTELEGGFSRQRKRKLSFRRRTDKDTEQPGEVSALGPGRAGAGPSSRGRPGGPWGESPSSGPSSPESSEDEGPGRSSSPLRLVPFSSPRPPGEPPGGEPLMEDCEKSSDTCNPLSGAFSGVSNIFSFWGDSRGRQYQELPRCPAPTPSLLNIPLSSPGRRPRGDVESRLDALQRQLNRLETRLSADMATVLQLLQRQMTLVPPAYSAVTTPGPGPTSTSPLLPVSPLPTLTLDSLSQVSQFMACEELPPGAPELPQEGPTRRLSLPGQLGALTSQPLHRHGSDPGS
With `O=C(CSc1nnc(-c2ccc3c(c2)OCCO3)o1)N1CCCC1` the “hERG current change (%, negative = inhibition) at 10uM” value was 9.03%. `Cc1ccc(-c2nc(-c3ccncc3)no2)c(Cl)c1` was tested, and the “hERG current change (%, negative = inhibition) at 10uM” value was 23.8%. `CCN(CC)C(=S)Oc1c(Cl)cccc1Cl` was tested, and the “hERG current change (%, negative = inhibition) at 10uM” value was 2.33%. With `CC1NC(=O)NC1CCCCCC(=O)Nc1ccc(F)cc1` (stereo not shown) the “hERG current change (%, negative = inhibition) at 10uM” value was 10.4%. For `O=C(/C=C/c1c(F)cccc1Cl)c1ccc(O)cc1`, the “hERG current change (%, negative = inhibition) at 10uM” value was 1.1%. With `Cn1c(N)c(C(=O)COC(=O)c2ccc(Cl)c(S(=O)(=O)N3CCCCC3)c2)c(=O)n(C)c1=O` the “hERG current change (%, negative = inhibition) at 10uM” value was -25.5%. In the case of `CCc1ccc(OCC(=O)NC2CC(C)(C)NC(C)(C)C2)cc1`, the “hERG current change (%, negative = inhibition) at 10uM” value was -0.165%. With `CC(CC(=O)Nc1nnc(C(C)(C)C)s1)c1ccccc1` (stereo not shown) the “hERG current change (%, negative = inhibition) at 10uM” value was 12.2%. In the case of `COc1cc(OC)c2ccc(=O)oc2c1C(CC(=O)N1CCCC1)c1ccc(N(C)C)cc1` (stereo not shown), the “hERG current change (%, negative = inhibition) at 10uM” value was 10.2%. For `COc1ccc(CCn2c(C)cc(C(=O)COC(=O)c3cnccn3)c2C)cc1`, the “hERG current change (%, negative = inhibition) at 10uM” value was 4.81%. For `Cn1c(NC(=O)c2ccc(F)cc2)nc2ccccc21`, the “hERG current change (%, negative = inhibition) at 10uM” value was 21.5%. `COc1cc(C(=O)Nc2cc3c(cc2N2CCCCC2)n(C)c(=O)n3C)cc(OC)c1OC` was tested, and the “hERG current change (%, negative = inhibition) at 10uM” value was 8.6%. `CCOc1ccc(NC(=O)CCN2CCN(c3ccccc3F)CC2)cc1` was tested, and the “hERG current change (%, negative = inhibition) at 10uM” value was -20.2%. For `CCOC(=O)C1=C(C)NC(=O)NC1c1c(OC)ccc2ccccc12` (stereo not shown), the “hERG current change (%, negative = inhibition) at 10uM” value was 12.9%. `COCCn1c(-c2ccc(OC)cc2)c(-c2ccc(OC)cc2)oc1=O` was tested, and the “hERG current change (%, negative = inhibition) at 10uM” value was -24.4%. `COC(=O)Cn1c(=O)c2c(nc3n2CCCN3CCc2ccc(OC)c(OC)c2)n(C)c1=O` was tested, and the “hERG current change (%, negative = inhibition) at 10uM” value was -22.8%. `COc1cc(OC)cc(C(=O)NC(=S)NCCc2ccccc2)c1` was tested, and the “hERG current change (%, negative = inhibition) at 10uM” value was -22.4%. In the case of `Cn1c2c(c(=O)n(C)c1=O)C(NS(=O)(=O)c1ccc(Cl)cc1)(C(F)(F)F)C(=O)N2` (stereo not shown), the “hERG current change (%, negative = inhibition) at 10uM” value was -3.21%. `COc1ccc(C2/C(=C(\O)c3ccc4c(c3)OCCO4)C(=O)C(=O)N2c2nc(C)c(C(C)=O)s2)cc1` (stereo not shown) was tested, and the “hERG current change (%, negative = inhibition) at 10uM” value was 19.2%. With `O=C(NCCN1CCCCC1)Nc1ccc(F)c(Cl)c1` the “hERG current change (%, negative = inhibition) at 10uM” value was -33.9%. In the case of `COC(=O)N1CCN(c2ccc(Cl)c(Cl)c2)CC1`, the “hERG current change (%, negative = inhibition) at 10uM” value was -1.86%. With `C=C1C(=O)O[C@@H]2C[C@@H](C)[C@@H]3C=CC(=O)[C@@]3(C)[C@@H](OC(C)=O)[C@H]12` the “hERG current change (%, negative = inhibition) at 10uM” value was 8.19%. With `COc1ccc(OC(=O)Nc2ccccc2)cc1` the “hERG current change (%, negative = inhibition) at 10uM” value was 1.4%. With `COC(=O)CN(c1ccccc1C)S(C)(=O)=O` the “hERG current change (%, negative = inhibition) at 10uM” value was 24.3%. `CC(C)CCn1c(SCC(=O)Nc2ccccc2C(F)(F)F)nc2nccnc2c1=O` was tested, and the “hERG current change (%, negative = inhibition) at 10uM” value was -21.6%.
